# Results taken from paper PMC6919601, “Identification of Plasmodium dipeptidyl aminopeptidase allosteric inhibitors by high throughput screening” (PLoS ONE, 2019).
# “And” between values parts separate entries of the source, which are not always exact repeats. Identical values can stand only once. Among all 110,000 compounds or so, about 230 (0.21%) showed an effect of 50% or more. The list shows a part of the results.
# Biological target: DPAP1 (Plasmodium falciparum, UniProt Q8IIJ9)
# Test: primary screen, percent inhibition; read by cleavage of a fluorogenic dipeptide substrate; higher = more effect of the substance
# Design: species or system P. falciparum D10 trophozoite lysates; single well
# 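Note: 30 min substrate incubation versus DMSO and 10 µM JCP410 controls.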
# Sequence of DPAP1 (Q8IIJ9 whole entry, looked up): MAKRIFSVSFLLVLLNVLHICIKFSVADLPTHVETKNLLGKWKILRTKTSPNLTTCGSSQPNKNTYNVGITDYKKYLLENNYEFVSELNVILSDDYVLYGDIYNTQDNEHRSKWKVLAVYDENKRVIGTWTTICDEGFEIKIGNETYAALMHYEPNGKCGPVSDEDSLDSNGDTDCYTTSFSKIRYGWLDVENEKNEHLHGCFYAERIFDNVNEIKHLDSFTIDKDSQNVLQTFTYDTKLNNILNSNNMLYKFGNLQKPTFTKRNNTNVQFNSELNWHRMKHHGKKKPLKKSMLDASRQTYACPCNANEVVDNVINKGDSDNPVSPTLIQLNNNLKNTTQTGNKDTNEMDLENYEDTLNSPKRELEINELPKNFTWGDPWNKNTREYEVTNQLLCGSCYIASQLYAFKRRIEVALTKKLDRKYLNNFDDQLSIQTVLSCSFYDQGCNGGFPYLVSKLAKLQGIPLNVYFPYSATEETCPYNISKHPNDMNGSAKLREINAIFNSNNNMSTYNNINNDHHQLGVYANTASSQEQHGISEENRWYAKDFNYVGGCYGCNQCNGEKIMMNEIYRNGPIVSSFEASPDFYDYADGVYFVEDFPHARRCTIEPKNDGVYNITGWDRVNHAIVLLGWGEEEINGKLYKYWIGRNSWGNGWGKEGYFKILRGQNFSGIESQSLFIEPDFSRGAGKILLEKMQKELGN
row,SMILES,% Inhibition @ 10 uM
1,CCOC(=O)c1cnc2ccc(C(=O)OC)cc2c1N1CC2(C)CC1CC(C)(C)C2 (stereo not shown),0.884%
2,CC(C)C[C@H](NC(=O)NCCc1cccs1)C(=O)NCC#N,-4.72%
3,N#CCNC(=O)[C@H](CS(=O)(=O)Cc1ccccc1)NC(=O)c1ccncc1,-3.49%
4,CC/N=C1/SC(CC(=O)Nc2ccc(N3CCOCC3)cc2)C(=O)N1CC (stereo not shown),2.15%
5,COc1ccc(NC(=O)CN(c2cccc(Cl)c2C)S(C)(=O)=O)cc1,-0.864% and 1.19%
6,CC1=C(C(=O)Nc2cccc(C)c2)C(c2ccccc2)NC(S)=N1 (stereo not shown),-0.582%
7,CCC1(c2ccc3cc(OC)ccc3c2)SC(NC(C)=O)=NN1C(C)=O (stereo not shown),1.5%
8,COC(=O)c1cccc(-n2c(C)cc(C=C3C(=O)c4ccccc4C3=O)c2C)c1C,2.17%
9,COc1ccc(CN(C(=O)NC2CCCC2)C2CCN(C(C)=O)CC2)cc1,4.43%
10,O=C(Nc1sc2c(c1C(=O)O)CCC2)c1ccccc1,-2.17%
11,C=CCN1CC(c2nc3ccccc3n2CC(=C)C)CC1=O (stereo not shown),1.67%
12,COc1ccc(C(=O)Cn2c3ccccc3n3nc(C)nc23)cc1OC,-7.02%
13,CCn1c2ccccc2c2cc(CNc3ccccc3Cl)ccc21,1.26%
14,CCCCCOc1ccc(C(N)CC(=O)O)cc1 (stereo not shown),-1.52%
15,O=C(O)C1=Cc2sc3c(c2CS1)CCCC3,4.65%
16,C=CCN1C(=O)/C(=C\c2ccc(N(CC)CC)cc2)C(=O)NC1=S,2.6%
17,Cc1sc2nc(SCC(=O)N3CCOCC3)n(-c3ccc(Cl)cc3)c(=O)c2c1C,4.09%
18,CCc1nnc2sc(/C=C/c3ccccc3)nn12,3.88%
19,COc1ccc(-c2c(C#N)c(SCC(N)=O)nc3c2C(=O)CC(C)(C)C3)cc1,-0.99%
20,CN(C)CCCn1c(=O)c2nc[nH]c2n(C)c1=O,2.14%
21,CC(C)N(CCc1ccncc1)C(=S)NCc1ccccc1,-4.53%
22,COc1ccc(N2C(=O)CC(N(Cc3ccco3)C(=O)CCC(=O)O)C2=O)cc1 (stereo not shown),1.08%
23,CC12CCC(CN(CC(O)Cn3c4ccc(Cl)cc4c4cc(Cl)ccc43)C1)C2(C)C (stereo not shown),-2.44%
24,COc1ccc2c(c1)cc1c(=O)n(CC(=O)NCc3ccc(Cl)cc3)nc(C)n12,4.84%
25,CC1CCc2c(sc(NC(=O)C3CC3)c2C(N)=O)C1 (stereo not shown),4.52%

row,SMILES,% Inhibition @ 10 uM
1,S=C(c1ccc2c(c1)OCO2)N1CCOCC1,0.0792%
2,COc1ccc2c(c1)C(=O)N(Cc1ccccc1)C1CCCCC21 (stereo not shown),0.727%
3,CCCCCOc1ccc2nc3c(nc2c1)C(=O)c1ccccc1C3=O,-1.6%
4,Cc1ccc2oc(=O)c3cc(C(=O)NCCCN(C)Cc4ccccc4)sc3c2c1,3.33%
5,CCOc1ccc(-n2c(SCc3nc(-c4cccs4)no3)nnc2-c2ccncc2)cc1,-0.45%
6,COc1cccc(/C=C/c2nc(C#N)c(NC(C)c3ccccc3)o2)c1 (stereo not shown),0.895%
7,CCOc1ccc(C2C3=C(O)CC(C)(C)CC3=NC(C)=C2C(=O)Nc2ccccc2OC)cc1 (stereo not shown),3.05%
8,COc1ccc(-c2csc3ncn(CC(=O)Nc4ccc(C)cc4C)c(=O)c23)cc1,-0.478%
9,COc1ccc(Nc2nc(N)c3ccccc3n2)cc1,-0.105%
10,CCCN1C(=O)CCN(C(C)=O)c2ccccc21,2.85%
11,O=c1oc2ccccc2n1CCCOc1ccc(Cl)cc1,-0.99%
12,COC(=O)c1ccc(-c2cc(C(=O)O)c3c(C)[nH]nc3n2)cc1,0.0654%
13,CC1=NN(c2ccccc2)C(=O)/C1=C\N1CCN(/C=C2/C(=O)N(c3ccccc3)N=C2C)CC1,-3.26%
14,COC(=O)c1sccc1NC(=O)C1=C(C)C(=O)OC12CCCCCC2,-11.2%
15,Cc1ccn2c(NC(=O)COc3ccc(Cl)cc3)c(-c3cccs3)nc2c1,-3.48%
16,c1ccc2sc(SCCCN3CCOCC3)nc2c1,4.42%
17,CCOc1ccccc1CNC(=O)Cn1ccc2cc(S(=O)(=O)N3CCCC3)ccc21,-8.45%
18,C/N=c1\c(NS(=O)(=O)Cc2ccccc2)c(O)oc2ccccc12,2.5%
19,COc1ccc(C2=NN(CCC(=O)NCCc3ccc(Cl)cc3)C(=O)CC2)cc1,2.35%
20,COc1ccc2nc(/N=C/c3nc(-c4ccc(C)cc4)oc3O)sc2c1,-3.44%
21,Cc1nn(CC(=O)NCCCN2CCOCC2)c(=O)c2cccn12,-5.78%
22,Cc1nn(C)cc1CNC(=O)c1nn2c(C(F)(F)F)cc(-c3cccs3)nc2c1Cl,-4.64%
23,CC1CCCN(C(=O)c2ccc(COc3ccccc3Cl)o2)C1 (stereo not shown),10.9%
24,CN(C)c1ccc(/C=C2/SC(N3CCOCC3)=NC2=O)cc1Br,4.89%
25,O=C(C1CCCN(Cc2ccccc2Cl)C1)N1CCCCC1 (stereo not shown),-4.84%

row,SMILES,% Inhibition @ 10 uM
1,O=c1ccn(Cc2ccccc2)c2ccnc(C(F)(F)F)c12,-2.66%
2,Cc1nn(C)c(C)c1CN(C)C(=O)c1cc2nc(-c3ccc4c(c3)OCO4)cc(C(F)(F)F)n2n1,8.69%
3,CCN(CC)S(=O)(=O)c1ccc(C)c([N+](=O)[O-])c1,4.17%
4,CC(C)(C)c1ccc(C(=O)N/C(=C\c2cccs2)C(=O)NCc2ccco2)cc1,2.36%
5,COc1cc(C(=O)Nc2ccc(-c3cn4cccc(C)c4n3)cc2)cc(OC)c1OC,14.3%
6,CC(C)CCNc1nc2c(S(=O)(=O)c3ccc(Cl)cc3)nnn2c2ccsc12,1.95%
7,O=C(NC1CCCCCC1)C1CCC(CNc2c(N3CCOCC3)c(=O)c2=O)CC1 (stereo not shown),1.22%
8,COc1ccc(N(CCC#N)S(=O)(=O)c2cccc3nsnc23)cc1,-3.48%
9,O=C(NCCO)/C(=C/c1ccc2c(c1)OCO2)NC(=O)c1ccco1,-0.736%
10,CC1C=CCC2C(=O)N(c3cccc(NC(=O)c4ccccc4)c3)C(=O)C12 (stereo not shown),3.26%
11,CCOC(=O)c1c(NC(=O)c2cc(-c3ccc(OC)cc3)on2)sc2c1CCCC2,4.5%
12,O=C(CN1C(=O)c2ccccc2C1=O)Nc1ccccc1-c1ccccc1,1.7%
13,COc1ccc(S(=O)(=O)c2c(C)c(NC(=O)c3ccccc3)cc(C)c2O)cc1,-2.83%
14,CCOC(=O)C1=C(CN2CCN(Cc3ccccc3)CC2)NC(=O)NC1c1ccc(OC)cc1 (stereo not shown),2.19%
15,CN(Cc1ccccc1)S(=O)(=O)c1csc(C(N)=O)c1,-3.44%
16,CC1CCCC(C)N1CCCNC(=O)C1CCCN(S(=O)(=O)N2CCCCC2)C1 (stereo not shown),-0.232%
17,COc1ccc(N(CC(=O)N2CCC(C)CC2)S(C)(=O)=O)cc1,4.76%
18,CC1CCN(C(=O)Cn2c3ccccc3c3cnnc(O)c32)CC1,1.38%
19,CCOc1ccccc1N1CCN(S(=O)(=O)c2ccc(NC(C)=O)cc2)CC1,-3.24%
20,COc1ccc(NC(=O)c2ccc(Br)o2)cc1,-2.42%
21,CCc1ccc2occ(CC(=O)N(Cc3ccc(F)cc3)C3CCS(=O)(=O)C3)c2c1 (stereo not shown),2.62%
22,O=C(O)CCCC(=O)Nc1ccc(Cl)c(Cl)c1,-4.35%
23,CC(C)Cn1cc(C(=O)N(C)Cc2ccccc2)c2c3ccccc3n(C)c2c1=O,4.68%
24,CCC1(C)Cc2c(sc3nc(SCC(=O)c4ccccc4)nc(N)c23)CO1 (stereo not shown),0.992%
25,CCOc1c(Cl)cc(CNCCNC(=O)c2nonc2N)cc1OC,-9.21%

row,SMILES,% Inhibition @ 10 uM
1,O=C(Cc1c[nH]c2ccccc12)NCc1ccccc1,0.238%
2,Cc1cc(C)c(C)c(S(=O)(=O)NCC(=O)Nc2sc3c(c2C(N)=O)CCCC3)c1C,4.83%
3,Cc1ccc(-c2cc(-c3ccccc3Cl)[nH]n2)c(O)c1,-2.58%
4,CCOC(=O)COc1ccccc1OCC,2.54%
5,Cn1nnc2c(NCC(=O)C(C)(C)C)nc(Cc3ccc(Cl)cc3Cl)nc21,0.0367%
6,CCn1cc(/C=C(\NC(=O)c2ccccc2)C(=O)NCc2ccco2)c2ccccc21,3.24%
7,CCN1CCN(C(=O)CCc2c(C)nc3c(c(C)nn3-c3ccc(C)cc3)c2C)CC1,0.953%
8,CC1CCN(S(=O)(=O)c2ccc(NC(=O)c3ccc(F)cc3)cc2)CC1,6.17%
9,CC(C)(C)NC(=O)CCNS(=O)(=O)c1ccc2[nH]c(-c3ccccc3)nc2c1,3.04%
10,CCOc1ccc(C2N=C(N)Nc3nc4ccccc4n32)cc1OC (stereo not shown),-1.68%
11,COc1ccc(CNCCc2ccc(Cl)cc2Cl)cc1Br,4.61%
12,O=C(Cc1cccc2ccccc12)Nc1ccc(F)cc1F,-1.25%
13,CC1=C(C(=O)Nc2ccccc2)C(c2ccco2)C(C#N)=C(SCC(=O)c2cccc(Br)c2)N1 (stereo not shown),6.15%
14,Cc1cc(C2(c3ccc(O)c(C)c3)C(=O)N(Cc3cccc4ccccc34)c3ccccc32)ccc1O,4.15%
15,CCC(=O)N1C(C(=O)NCc2ccccc2)CSC12CCN(C)CC2 (stereo not shown),-8.35%
16,O=C1c2ccccc2NC(c2ccccc2)N1Cc1ccccc1 (stereo not shown),1.61%
17,COc1cc2c(C(=O)NCCC3=CCCCC3)cn(C)c(=O)c2cc1OC,3.34%
18,Cc1cc(-c2ccc(S(=O)(=O)NC3CCCc4ccccc43)s2)on1 (stereo not shown),-3.23%
19,CCOc1ccc(CC(=O)Nc2ccc(C)cc2)cc1OCC,-0.173%
20,Cc1nnc(NC(=O)CSc2cn(Cc3ccccc3Cl)c3ccccc23)s1,-2.7%
21,O=C(N/C(=C\c1ccc(O)cc1)C(=O)N1CCOCC1)c1ccccc1Cl,2.17%
22,COc1ccc(CCNC(=O)CN2N=C(c3ccccc3)CCC2=O)cc1OC,-1.21%
